# Data taken from paper PMC4336329 (PLoS ONE, 2015).
# Among all 310,000 compounds or so, about 2,200 (0.71%) showed an effect of 50% or more. Effects have a minus sign here. The list shows a part of the results.
# Target: human ether-à-go-go-related gene (hERG) potassium channel (human, UniProt Q12809)
# Experiment: primary screen, population patch clamp on CHO cells stably expressing hERG
# Sequence of human ether-à-go-go-related gene (hERG) potassium channel (Q12809 whole entry, looked up): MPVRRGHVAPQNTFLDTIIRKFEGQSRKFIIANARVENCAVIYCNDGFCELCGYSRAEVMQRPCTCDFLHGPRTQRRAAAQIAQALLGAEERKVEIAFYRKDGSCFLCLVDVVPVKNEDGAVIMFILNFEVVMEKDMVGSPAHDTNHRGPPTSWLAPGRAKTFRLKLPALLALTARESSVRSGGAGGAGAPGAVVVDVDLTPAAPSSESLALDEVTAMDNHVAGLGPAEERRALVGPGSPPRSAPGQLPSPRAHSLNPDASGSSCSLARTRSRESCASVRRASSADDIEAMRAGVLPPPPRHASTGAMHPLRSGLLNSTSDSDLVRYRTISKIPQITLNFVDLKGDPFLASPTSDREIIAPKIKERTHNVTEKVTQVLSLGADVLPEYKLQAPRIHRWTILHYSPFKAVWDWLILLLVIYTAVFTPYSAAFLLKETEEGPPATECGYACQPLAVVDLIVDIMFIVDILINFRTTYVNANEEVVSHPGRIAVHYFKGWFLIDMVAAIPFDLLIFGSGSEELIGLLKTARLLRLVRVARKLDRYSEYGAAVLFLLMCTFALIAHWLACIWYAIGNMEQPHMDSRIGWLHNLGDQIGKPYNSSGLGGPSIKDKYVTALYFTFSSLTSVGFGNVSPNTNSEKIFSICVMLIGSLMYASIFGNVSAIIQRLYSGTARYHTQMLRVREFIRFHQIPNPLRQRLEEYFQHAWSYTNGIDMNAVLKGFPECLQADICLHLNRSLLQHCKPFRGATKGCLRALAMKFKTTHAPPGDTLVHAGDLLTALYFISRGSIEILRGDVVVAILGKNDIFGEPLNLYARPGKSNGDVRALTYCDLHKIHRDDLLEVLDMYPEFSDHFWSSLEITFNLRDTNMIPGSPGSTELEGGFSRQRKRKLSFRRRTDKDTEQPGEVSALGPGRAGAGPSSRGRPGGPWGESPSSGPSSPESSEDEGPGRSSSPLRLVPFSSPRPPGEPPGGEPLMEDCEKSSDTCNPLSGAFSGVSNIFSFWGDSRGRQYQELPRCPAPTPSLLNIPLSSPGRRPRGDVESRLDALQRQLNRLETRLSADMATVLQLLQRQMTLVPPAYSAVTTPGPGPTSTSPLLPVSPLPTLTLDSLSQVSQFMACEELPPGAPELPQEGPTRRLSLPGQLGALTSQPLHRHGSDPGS
row,Compound,"hERG current change (%, negative = inhibition) at 1uM"
1,S=C(NCCc1ccccc1)NCCc1ccccc1,15%
2,CCN1CCN(Cc2ccc(NC(=O)Nc3ccccc3)cc2)CC1,4.53%
3,COc1cccc(-n2c(Cc3cc(=O)[nH]c(=O)[nH]3)nnc2SCC(=O)N2CCCCCC2)c1,3.73%
4,c1ccc(CCNc2ncnc3ccccc23)cc1,-19.1%
5,Cc1ccc(S(=O)(=O)NCC(=O)NCc2cc(=O)n(C)c(=O)n2C)cc1C,14.6%
6,Cc1cccc(OCC(=O)Nc2ccc3c(c2)OCO3)c1C,12.7%
7,COc1ccc(CNc2nc3ccccc3n2CCN2CCCCC2)cc1,-15.8%
8,CC(C)(C)N(NS(=O)(=O)c1ccc(F)cc1)c1ccccc1,13.2%
9,Cc1ccc(CC2CC(=O)N(c3cc(C)ccc3C)C2=O)cc1 (centres unmarked),7.26%
10,Cc1c(O)ccc(/C(Cc2ccc3ccccc3n2)=N\O)c1O,7.2%
11,CCCCS(=O)(=O)C(=C1Nc2ccccc2N1)S(=O)(=O)CCCC,9.64%
12,O=C(Nc1ccc(C(F)(F)F)cc1)C1CC(=O)N(c2ccc3c(c2)OCCO3)C1 (centres unmarked),4.74%
13,Fc1cccc(CSc2nnc3ccc(-c4ccncc4)nn23)c1,-23.8%
14,CC1CCCCN1S(=O)(=O)c1ccc([N+](=O)[O-])cc1 (centres unmarked),11.8%
15,O=C(Nc1ccc(S(=O)(=O)NC2CCCCC2)cc1)c1ccco1,5.93%
16,O=C1CC(c2ccc(O)cc2)Oc2cc(O)cc(O)c21 (centres unmarked),10.9%
17,COc1cc2cc(CN(CCN3CCCC3)C(=O)Nc3ccccc3Cl)c(=O)[nH]c2cc1OC,6.72%
18,O=C(O)COc1ccc(-c2nnn(CC(=O)O)n2)cc1,14.1%
19,Cc1ccc(C)c(Nc2ccc3nonc3c2[N+](=O)[O-])c1,6.69%
20,CNc1oc(/C=C/c2ccccc2)nc1C#N,7.25%
21,CCCCOc1ccc(C(=O)O)cc1,10.4%
22,CC1(C)Oc2ccc(C(=O)NC3CCCC3)cc2N(CC(=O)N2CCOCC2)C1=O,8.93%
23,CC(C)N1CCN(Cc2coc3ccccc3c2=O)CC1CCO (centres unmarked),16.3%

row,Compound,"hERG current change (%, negative = inhibition) at 1uM"
1,C[C@H](CCC(=O)NCC(=O)O)[C@H]1CC[C@H]2C3[C@H](O)C[C@@H]4C[C@H](O)CC[C@]4(C)[C@H]3C[C@H](O)[C@]12C (some centres unmarked),14.5%
2,CCSc1ccccc1C(=O)Nc1nncs1,8.79%
3,COC(=O)Cn1c(=O)c(=O)n(CC(=O)OC)c2ccccc21,18.8%
4,O=C(CCS(=O)(=O)c1cccs1)N1CCCC1,-2%
5,Cc1ccsc1C(=O)OCC(=O)Nc1c(Cl)cccc1C(F)(F)F,8.26%
6,CC(=O)N1Cc2ccccc2CC1C(=O)NCc1ccccc1F (centres unmarked),-0.311%
7,O=C(Nc1ccc2c(c1)nc1n2CCOC1)c1ccco1,7.91%
8,O=C(CCCCCNC(=O)N1CCn2c1nc1ccccc12)N[C@@H](Cc1ccccc1)C(=O)O,-9.39%
9,Cc1ccccc1CN1CCN(S(=O)(=O)c2cccc3nsnc23)CC1,11.9%
10,CC(=O)Cc1cc(O)c2ccccc2c1OC(=O)c1ccccc1,18.8%
11,CC(C)Cn1c(=S)[nH]c2cc(C(=O)NCc3ccccc3F)ccc2c1=O,-6.14%
12,CCCCSc1nc(C)c(CC(=O)OC)c(=O)[nH]1,13.1%
13,COc1ccccc1NC(=S)N1CCN(C(c2ccccc2)c2ccccc2)CC1,3.9%
14,CCS(=O)(=O)c1nc(S(=O)(=O)c2ccc(C)cc2)c(N2CC(C)CC(C)C2)s1 (centres unmarked),13.2%
15,COc1ccc(N2CCCC2)c(NC(=O)COc2ccccc2Cl)c1,7.23%
16,CS(=O)(=O)N1CCCC(C(=O)Nc2ccccc2F)C1 (centres unmarked),15.3%
17,OC[C@@H](O)[C@@H](O)[C@H](O)[C@H](O)CO,10.8%
18,Cc1ccc2ccccc2c1NC(=O)Cn1nnc(-c2cccnc2)n1,12%
19,C=CCc1cccc2cc(C(=O)OCC(=O)c3ccccc3)c(=O)oc12,-1.67%
20,COCCCN=Cc1c(O)[nH]c(=S)[nH]c1=O,4.97%
21,O=C(O)C(NS(=O)(=O)c1ccccc1)C(O)c1ccccc1 (centres unmarked),18.4%
22,CCOc1ccc2c(C)c(C(=O)O)oc2c1OCC,5.32%
23,COc1ccc(NS(=O)(=O)c2cccc(C(=O)N(C)Cc3ccc(SC)cc3)c2)cc1,4.46%

row,Compound,"hERG current change (%, negative = inhibition) at 1uM"
1,O=c1c(Cc2c(F)cccc2Cl)c(O)ccn1CCCN1CCOCC1,-2.7%
2,Cn1cc([N+](=O)[O-])c(C(=O)N/N=C/c2ccc3c(c2)OCO3)n1,1.71%
3,Cc1ccc(C(=O)Nc2nc(C)c(C(=O)N(C)C)s2)o1,7.47%
4,Cc1nc(C(=O)O)nn1-c1cc(Cl)ccc1Cl,16.1%
5,CCC(c1nnnn1Cc1ccccc1)N1CCN(c2ccccc2)CC1 (centres unmarked),9.26%
6,Cc1cc(Oc2ccc(N)cn2)ccc1Cl,14.2%
7,CC(/C=C/C=C/c1ccccc1)=N/NC(=O)CNc1ccc(C)cc1,16%
8,O=C(CCCC(=O)OCC(F)(F)C(F)F)Nc1nccs1,13.1%
9,CC1CN(C(=O)COC(=O)c2cc(Cl)ccc2[N+](=O)[O-])CC(C)O1 (centres unmarked),18%
10,Cn1cc([N+](=O)[O-])c(C(=O)NCc2ccco2)n1,24.8%
11,COC(=O)c1[nH]c2ccc(C)cc2c1NC(=O)Nc1ccc(OC)cc1,-9.72%
12,C[n+]1cccc(C(=O)NCC2CCCO2)c1.[I-] (centres unmarked),7.7%
13,COc1nccnc1NS(=O)(=O)c1ccc(NC(=S)NC(=O)/C=C/c2ccc(F)cc2)cc1,2.18%
14,CCCn1c(N)c(C(=O)CSc2n[nH]c(-c3ccc(C)cc3)n2)c(=O)[nH]c1=O,18%
15,Cc1cc(/C=C(/C#N)C(=O)O)c(C)n1CCC(C)C,4.5%
16,CCN(C(=O)CSc1nncn1-c1ccccc1)C1CCS(=O)(=O)C1 (centres unmarked),15%
17,CCN(CC)S(=O)(=O)N1CCC(C(=O)NC2CCCC2)CC1,3.5%
18,CSc1ccccc1NC(=O)C1=COCCO1,11.4%
19,O=C(CSC1=NS(=O)(=O)c2cc(Cl)ccc2N1)Nc1cccc(F)c1,6.29%
20,COc1cccc(NC(=O)CCNC(=O)C2CCN(S(=O)(=O)c3ccc(F)cc3)CC2)c1,14.9%
21,O=C(Nc1cccnc1)c1cc2nc(C3CC3)cc(C(F)(F)F)n2n1,8.19%
22,CN(C)CCCNS(=O)(=O)c1ccc(NC2CCCCCC2)c([N+](=O)[O-])c1,7.18%
23,CCOc1ccc(NC(=O)COn2nnc3ccc(S(=O)(=O)N4CCOCC4)cc32)cc1,2.89%

row,Compound,"hERG current change (%, negative = inhibition) at 1uM"
1,Cc1cccc(Nc2nc(N)c([N+](=O)[O-])c(NCc3ccco3)n2)c1,11.7%
2,COc1cccc(-c2cccc(NC(=O)C3CCN(C4CCOCC4)CC3)c2)c1,-14.6%
3,Cc1ccc(CNC(=O)Nc2ccc(Cl)cc2)cc1,15.8%
4,CC(C)CCNC(=O)/C=C/c1ccc(Br)cc1,8.76%
5,CCOC(=O)c1c(N)n[nH]c1-c1ccccc1,16.2%
6,COc1ccc(N(C)C(=O)c2cn(CC(C)C)c(=O)c3cc(OC)c(OC)cc23)c(OC)c1,7.71%
7,CC(C)[C@H](NC(=O)c1ccco1)C(=O)OCc1cc(=O)n2c(n1)sc1ccccc12,3.21%
8,COc1cc2c(cc1C1NC(=S)NC(C)=C1C(=O)N(C)C)CCCC2 (centres unmarked),-5.53%
9,CC(C)C(=O)O/N=C(\N)c1ccccn1,3.94%
10,CC(Sc1n[nH]c(N)n1)C(=O)Nc1cccc(S(=O)(=O)N2CCOCC2)c1 (centres unmarked),21.9%
11,CCN(CC)S(=O)(=O)c1cccc(-c2nnc(SC(C)C(N)=O)n2CCc2ccccc2)c1 (centres unmarked),0.698%
12,O=S(=O)(c1ccccc1)c1cnc(-c2cccnc2)nc1-c1ccccc1,2.96%
13,Brc1c(C[n+]2ccccc2)nc2ccccn12.[Br-],12.7%
14,Cc1ccc(NCC(=O)Nc2ccc(Br)cc2)cc1C,10.5%
15,CC(C)(C)c1cc(NC(=O)Nc2ccccc2)no1,9.69%
16,C=CCNS(=O)(=O)c1nc(C)c(Cl)c(C)c1C#N,6.93%
17,CNC(=O)c1nn(-c2ccc(Cl)cc2)ccc1=O,10.2%
18,O=C(NCc1ccccc1CN1CCCC1)C1CCN(S(=O)(=O)c2ccc(F)c(F)c2)CC1,-8.52%
19,CSc1ncccc1C(=O)Nc1ccc(S(=O)(=O)N2CCCC2)cc1,-16.8%
20,O=c1[nH]c(CSc2nc3ccccc3o2)nc2c1cnn2-c1ccccc1,0.461%
21,Cc1ccc(CNC(=O)C2CCCN2C(=O)Nc2ccccc2)cc1 (centres unmarked),7.54%
22,COc1ccc(NC(=S)NCc2ccco2)cc1,10.9%
23,O=C(NC(NC(=O)c1ccccc1)c1ccccc1)c1ccccc1,-0.669%
